Read-outs that look alike come from different tables or passages of the source.
Columns and labels:
[1] = test system: 30 protein targets
[2] = test system: 30 protein targets; test: Panel of 30 diverse targets (summary); details: 3 μM

O=C(C1CC1)N1CCN(Cn2sc3ccccc3c2=O)CC1 [LOC14]
binding or inhibition in panel of 30 targets [1]: no binding or inhibition to any other targets
binding or inhibition in panel of 30 targets [2]: did not bind to any of the 30 protein targets

From US20220380383A1, “NEUROPROTECTIVE PDI MODULATING SMALL MOLECULES AND METHODS OF USE THEREOF” (THE TRUSTEES OF COLUMBIA UNIVERSITY IN THE CITY OF NEW YORK, priority 2018, published 2022)
